# Results taken from PubChem BioAssay AID1346428 (National Center for Advancing Translational Sciences (NCATS), 2018).
# Where “and” joins values, the source holds several entries; their conditions need not be identical. Equal entries are not always repeated. The whole screen tested about 48,000 compounds, of which about 1,200 (2.5%) were called active. About 2% were inconclusive and are not listed.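 The calls were made as follows: active = activation of at least 60% and not above a set upper limit (about 1 call in 100 departs from these limits); inconclusive = activation of 40% to 60%, or above that upper limit; inactive = activation under 40%.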 This is one part of the list.
# Molecular target: Probable G-protein coupled receptor 32 (Homo sapiens) (UniProt O75388)
# UniProt O75388, sequence (O75388 whole entry, looked up): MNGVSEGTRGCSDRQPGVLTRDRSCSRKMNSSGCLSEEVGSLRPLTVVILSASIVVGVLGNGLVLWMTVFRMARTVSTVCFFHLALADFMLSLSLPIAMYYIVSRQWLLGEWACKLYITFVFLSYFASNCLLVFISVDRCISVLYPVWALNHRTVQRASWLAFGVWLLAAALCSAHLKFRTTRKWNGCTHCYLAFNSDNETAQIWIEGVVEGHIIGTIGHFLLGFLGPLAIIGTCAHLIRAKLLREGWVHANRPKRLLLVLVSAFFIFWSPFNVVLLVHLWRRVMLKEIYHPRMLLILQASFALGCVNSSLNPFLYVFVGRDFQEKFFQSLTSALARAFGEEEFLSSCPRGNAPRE
# Test: qHTS for Agonists of Human Resolvin D1 Receptor DRV1; also: 0% is about no effect
# Details: CHO-K1 GPR32 beta-arrestin PathHunter luminescence, 90 min; at 76.9 µM; hits give high values; zero percent set by DMSO-only wells
# How it was run: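 CHO-K1 cells stably expressing ProLink-tagged GPR32 and Enzyme Activator-tagged beta-arrestin were seeded at 2,500 cells/well overnight, exposed to compounds for 90 min at 37 °C, then read by beta-Gal complementation chemiluminescence after 1 h detection reagent.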
row,SMILES,activation
1,COc1ccc2oc(=O)c(C(=O)NCCc3c(C)[nH]c4c(Cl)cccc34)cc2c1,inactive: -2.94%
2,CCc1ccccc1NC(=O)N1CCN(c2cc(-c3noc(C)n3)ccc2C)CC1,inactive: 8.94%
3,O=S(=O)(Nc1ccc(Cl)cc1)c1ccc(NS(=O)(=O)c2ccc3c(c2)OCCO3)cc1,inactive: 23.9%
4,Cc1ccc(CN(C(=O)COc2cccc([N+](=O)[O-])c2)c2ccccn2)o1,inactive: -1.21%
5,CCOC(=O)c1cccc(NC(=O)C(CC(C)C)N2Cc3ccccc3C2=O)c1 (stereo not given),inactive: -32.5%
6,Cn1nnnc1SCCNCc1ccc(F)cc1,inactive: -5.49%
7,CCC(=O)N1CCc2cc(Br)cc(S(=O)(=O)N3CCCC(C(=O)Nc4ccc(OC)c(Cl)c4)C3)c21 (stereo not given),inactive: -3.97%
8,COc1ccc(OC)c(CNC(=O)CCCn2ccc3cc(S(=O)(=O)N4CCCC4)ccc32)c1,inactive: -13.1%
9,COc1cc(-c2noc(-c3ccc(NCc4cccnc4)c([N+](=O)[O-])c3)n2)cc(OC)c1OC,inactive: 15.2%
10,COC(=O)CC1c2cc(OC)c(OC)cc2CCN1C(=O)Nc1ccc(C)cc1Cl (stereo not given),inactive: -13.8%
11,COc1ccccc1Nc1nn2c(=O)c3ccc(C(=O)NCCCOC(C)C)cc3nc2s1,inactive: 11.7%
12,CCn1c2ccccc2c2nnc(SCCN3CCCCC3)nc21,inactive: -11.1%
13,N#C/C(=C/c1cn(Cc2ccc(F)cc2)c2ccccc12)C(=O)Nc1cccc(Cl)c1,inactive: -32.9%
14,CCCc1cc(=O)[nH]c(Nc2ccc(C(=O)O)cc2)n1,inactive: -2.06%
15,O=C(CSc1nccn1-c1ccccc1)Nc1nc2ccccc2s1,inactive: 24.9%
16,CCOc1ccc(CCNC(=O)CCCn2nc(C)c3sc4ccccc4c3c2=O)cc1OCC,inactive: -9.66%
17,CCOc1ccc(CNC(=O)CCC(=O)N2CC(C)Sc3ccccc32)cc1 (stereo not given),inactive: -13.5%
18,Cn1ccc2cc(S(=O)(=O)N3CCCN(C(=O)Nc4ccccc4Br)CC3)ccc21,inactive: 15.1%
19,CCC1CN(C(=O)N2CCC(C(=O)NCCN(C)C)CC2)c2ccccc2O1 (stereo not given),inactive: 1.94%
20,CCc1ccc(CNC(=O)c2cccc(-n3cnc4cccnc43)c2C)cc1,inactive: -1.41%
21,CCOc1ccc(OCC)c(NC(=O)Cn2ncc3c4ccccc4n(Cc4ccccc4)c3c2=O)c1,inactive: 10.5%
22,Cc1ccc(NC(=O)c2cnc(SCC(=O)N3CCOCC3)n(C)c2=O)cc1,inactive: 4.77%

row,SMILES,activation
1,COc1ccccc1-c1nnc(C2CCN(C(=O)c3ccc(C)cc3)CC2)o1,inactive: -5.25%
2,COc1ccc(-c2noc(-c3nnn(-c4cc(C)ccc4C)c3N)n2)cc1,inactive: 1.32%
3,COc1ccc2nc3oc(C(=O)NCc4ccccc4OC)cc3cc2c1,inactive: 13.3%
4,NC(=O)CSc1ncc2c(n1)-c1ccccc1N(Cc1cccc(F)c1)S2(=O)=O,inactive: -3.76%
5,Cc1ccc(-c2nc(CS(=O)CC(=O)N3CCN(c4ccc(Cl)cc4)CC3)c(C)o2)cc1 (stereo not given),inactive: -5.44%
6,CN(C)S(=O)(=O)c1ccc2c(c1)N(CC(=O)N1CCN(c3ccc(F)cc3)CC1)CCS2,inactive: -0.104%
7,CC1(C)CC(=O)c2c(oc3c(Cl)cc(NS(=O)(=O)c4ccc(Cl)cc4)cc23)C1,inactive: -0.712%
8,CCN(CC)CCNC(=O)c1ccc(Cn2c(=O)c3cccn3c3cccnc32)cc1,inactive: -25.4%
9,CC1CCN(c2ccc(-c3nc(C(C)C)no3)cc2[N+](=O)[O-])CC1,inactive: 2.7%
10,Cc1nc2ccccc2c(=O)n1-c1ccc(NC(=O)C(F)(F)F)cc1,inactive: 19.3%
11,Cc1cc(NC(=O)CSc2ncc(C(=O)Nc3ccc(F)cc3)c(=O)n2C)no1,inactive: -8.48%
12,Cc1ccc(-n2ncc(C(=O)NCCc3ccsc3)c2C2CCN(C(=O)OC(C)(C)C)CC2)cc1C,inactive: -11.2%
13,O=C(CC(NCc1cccnc1)C(=O)O)Nc1ccc(F)cc1 (stereo not given),inactive: -0.687%
14,O=c1oc2ccc(Br)cc2cc1-c1csc(-c2ccc(Cl)cc2)n1,inactive: -0.0006%
15,CCCNC(=O)c1ccc(-n2c(-c3ccccc3)cc3c2CCC(C)C3)cc1 (stereo not given),inactive: -36.9%
16,CCOc1ccccc1NC(=O)c1c(NCc2sccc2C)sc2c1CCCCC2,inactive: -13.9%
17,C=Cc1ccc(Cn2c(C(=O)O)c(CNCc3cc(Br)ccc3OC)c3ccc(C)cc32)cc1,inactive: -1.85%
18,CCCN1C(=O)C2(c3ccccc31)c1c(oc3ccccc3c1=O)C(=O)N2CCO (stereo not given),inactive: 6.48%
19,CCN(CC)c1nn2c(=O)c(C(=O)NCc3ccc(F)cc3)cnc2s1,inactive: -7.43%
20,CCCn1c2ccccc2c2cnn(CC(=O)NCCc3ccc(OC)cc3OC)c(=O)c21,inactive: -2.72%
21,CCNC(=O)Cc1ccc(NC(=O)N2CCCCc3ccccc32)cc1,inactive: 3.33%
22,O=C(c1ccc(OCCN2CCCCC2)cc1)c1c(-c2ccc(O)cc2)sc2cc(O)ccc12,inactive: -4.37% and inactive: -34%

row,SMILES,activation
1,O=C1c2ccccc2-c2n[nH]c3cccc1c23,inactive: 20.2%
2,Cc1nc(-c2ccccc2)sc1CCNS(=O)(=O)c1ccc(Br)cc1,inactive: 21.4%
3,CCn1nc(C)c(CCN(C)C(=O)Nc2cc(Cl)ccc2C)c1C,inactive: 17.7%
4,COc1ccc(CC(=O)NCCc2csc(-c3ccc(Cl)cc3)n2)cc1,inactive: 40.3%
5,COc1cc2c(c(OC)c1OC)-c1ccc(OC)c(=O)cc1[C@@H](NC(C)=O)CC2,inactive: 12% and inactive: 3.37%
6,Cc1ccc(CNC(=O)CCS(=O)(=O)c2cc(Br)cc3c2N(C(=O)C2CC2)CC3)cc1,inactive: -3.13%
7,O=C(Nc1ccc(Cl)cc1)N1CCN(c2ccc3nnc(-c4ccc(F)cc4)n3n2)CC1,inactive: -2.64%
8,Cc1ccc(-n2nc(CO)c(C(=O)NCc3cccs3)n2)cc1,inactive: -7.77%
9,Cc1cc(C)c(S(=O)(=O)NCC(c2cccs2)S(=O)(=O)c2ccccc2)c(C)c1 (stereo not given),inactive: -0.181%
10,COc1ccccc1CCNC(=O)C(=O)NCC(c1ccco1)S(=O)(=O)c1ccc(C)cc1 (stereo not given),inactive: -19.7%
11,CCC(=O)N1CCc2cc(S(=O)(=O)CCC(=O)NCc3ccccc3OC)ccc21,inactive: -7.68%
12,Cc1ccc(NCc2nc3ccccc3n2CCOc2ccccc2)cc1,inactive: 9.65%
13,CCCCn1c(CNC(=O)c2ccc(OC)cc2)nnc1SCC(=O)Nc1ccc(OC)cc1,inactive: 3%
14,Cc1cc(NC(=O)Nc2nc3c(s2)CCCCCC3)ccc1Br,inactive: -1.71%
15,COc1ccccc1Nc1cc(C(=O)NCc2cccs2)c2ccccc2n1,inactive: -23.1%
16,COc1ccc(C2CC(=O)c3cc(-c4nc(-c5ccc(Cl)cc5)cs4)c(=O)[nH]c3C2)cc1OC (stereo not given),inactive: 11.1%
17,CC1Cc2ccccc2N1S(=O)(=O)c1nnc(NC(=O)c2ccccc2)s1 (stereo not given),inactive: 47.5%
18,COC(=O)c1nnn(CC(=O)NC(=O)Nc2c(C)cccc2C)c1C(=O)OC,inactive: 2.38%
19,CCn1cc2nc(SCC(=O)Nc3ccccc3C(F)(F)F)n(Cc3ccc(C)cc3)c(=O)c2n1,inactive: -1.88%
20,Cc1ccccc1C(=O)n1nc(-c2cccnc2)nc1NCc1ccccc1,inactive: -29.6%
21,CCCCN(CC)CCCNC(=O)c1nn(C)c2c1CSc1ccccc1-2,inactive: -13.6%
22,COc1ccc(OC)c(CCNC(=O)Cn2ncc3c([nH]c4ccccc43)c2=O)c1,inactive: -10.4%

row,SMILES,activation
1,NS(=O)(=O)c1ccc(NC(=O)C2Cc3ccccc3N2C(=O)c2ccccc2)cc1 (stereo not given),inactive: -19.4%
2,CCn1cc(C(=O)N2CCN(c3cccc(C)c3C)CC2)c2cc(OC)c(OC)cc2c1=O,active: 75.8%
3,COc1ccc(N2CC(NC(=O)C(c3ccccc3)c3ccccc3)CC2=O)cc1OC (stereo not given),inactive: 10.8%
4,CC(C)Oc1ccc(-c2nc3c(C#N)c[nH]n3c2NC2CCCCC2)cc1,inactive: -39.7%
5,COCCCNC(=O)CCC(=O)NNc1nc2ccccc2c2nc(C)nn12,inactive: 26.4%
6,CCOC(=O)c1c(C)oc2ncnc(Nc3ccc(OC)c(OC)c3)c12,inactive: -21.1%
7,COc1ccc(Cn2c(=O)c3cccnc3n(Cc3cccc(F)c3)c2=O)cc1,inactive: -23.9%
8,COc1ccccc1CNC(=O)c1ccc2nc(CCc3ccccc3)oc2c1,inactive: -12.1%
9,COc1ccc(-c2nc(SCC(=O)Nc3c(C)cc(C)cc3C)n[nH]2)cc1,inactive: -5.66%
10,COc1cccc(-c2nc(S(=O)(=O)c3ccc(C)cc3)c(N3CCCCC3)o2)c1,inactive: 1.1%
11,CN(C)c1nc2c(Br)c(Br)c(Br)c(Br)c2[nH]1,inactive: 0.243%
12,COC(=O)c1ccc(C(=O)OC)c(NC(=O)c2ccc(-c3ccccc3)s2)c1,inactive: -2.09%
13,Cc1cc(OCC(=O)N(Cc2ccc(N(C)C)cc2)CC2CCCO2)ccc1Cl (stereo not given),inactive: -14.1%
14,Cc1cccc(C)c1NC(=O)c1sc(-n2nc(C)c(Cc3ccccc3)c2C)nc1C,inactive: -6.13%
15,O=C(CSc1ncc(S(=O)(=O)c2ccc(Cl)cc2)c(=O)[nH]1)Nc1cccc(C(F)(F)F)c1,active: 113%
16,COc1ccccc1NC(=O)c1c(C)cc(C)nc1SCC(=O)c1ccc(Cl)cc1,inactive: -17%
17,CC(C)Oc1ccc(C(=O)N(Cc2ccco2)Cc2cccs2)cc1,inactive: -25.1%
18,CCOC(=O)c1ccccc1NC(=O)CSc1nccn1Cc1ccco1,inactive: 1.72%
19,COc1ccc(-c2cc3nc(C)c(CCC(=O)NC4CCCCC4)c(C)n3n2)c(OC)c1,inactive: -16.4%
